Data from PubChem BioAssay AID2147 (National Center for Advancing Translational Sciences (NCATS), 2009).
Where “and” joins values, the source holds several entries; their conditions need not be identical. Identical values can stand only once. The whole screen tested about 230,000 compounds, of which about 3,600 (1.6%) were called active. Inconclusive results, whose numbers are uncertain, are shown with a selection of clear calls. The call rests on the fitted dose curve; in most records, active means well fitted inhibition curve with a large enough effect (not every such curve was filed as active); inconclusive means small, poorly fitted or top-dose-only effect, or another doubt; inactive means no such curve, though single readings can be large or run the other way. Where the call is inconclusive, the potency comes from a doubtful curve fit.

Molecular target: Lysine-specific demethylase 4E (Homo sapiens) (UniProt B2RXH2)
Sequence of UniProt B2RXH2 (B2RXH2 whole entry, looked up, the tested form may be a part): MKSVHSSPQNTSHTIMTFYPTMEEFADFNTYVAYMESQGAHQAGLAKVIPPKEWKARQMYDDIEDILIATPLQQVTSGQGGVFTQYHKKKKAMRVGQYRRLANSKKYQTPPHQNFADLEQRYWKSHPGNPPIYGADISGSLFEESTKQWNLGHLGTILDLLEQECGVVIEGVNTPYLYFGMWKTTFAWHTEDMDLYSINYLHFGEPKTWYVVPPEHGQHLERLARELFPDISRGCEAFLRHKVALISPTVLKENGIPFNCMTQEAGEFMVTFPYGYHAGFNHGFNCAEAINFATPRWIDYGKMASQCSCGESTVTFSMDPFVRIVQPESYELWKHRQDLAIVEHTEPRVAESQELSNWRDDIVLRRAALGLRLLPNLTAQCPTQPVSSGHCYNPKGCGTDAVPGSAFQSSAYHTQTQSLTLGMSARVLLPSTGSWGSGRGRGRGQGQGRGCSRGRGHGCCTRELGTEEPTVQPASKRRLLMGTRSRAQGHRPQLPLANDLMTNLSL
Assay: qHTS Assay for Inhibitors of Human Jumonji Domain Containing 2E (JMJD2E)
Conditions: JMJD2E catalytic domain, FDH-coupled NADH fluorescence (FDH is formaldehyde dehydrogenase); series mostly up to 57.1 µM; activity change, negative = inhibition: at the top concentration
Further: nearly all actives have a fitted effect of over 50% in size.
Potency means the concentration at half of the fitted maximal effect; tags describe the fitted curve by direction and shape.
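Wherever activity change, negative = inhibition is given: 0% = wells with enzyme and -100% = buffer wells without enzyme.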

Structure (SMILES) | Potency | activity change, negative = inhibition
CC(C)(C)c1ccc(-c2nc(NCc3cccnc3)c3ccccc3n2)cc1 | inconclusive: 31.6 µM [inhibitor, single point] | 
CC(=O)Nc1ccc(C(=O)Nc2nc(-c3cc(C)n(Cc4ccccc4)c3C)cs2)cc1 | inconclusive: 5.62 µM [inhibitor, full curve] | 
Cc1ccccc1Nc1c(-c2ccccn2)nc2ccccn12 | inconclusive: 39.8 µM [inhibitor, single point] | 
C=CCn1c(=NC(=O)c2cccc(N3C(=O)CCC3=O)c2)sc2cccc(OC)c21 | inconclusive: 31.6 µM [inhibitor, partial curve] | 
Cc1ccc(-n2c(N)c(C#N)c(-c3ccccc3)c(C#N)c2=O)cc1 | inconclusive: 39.8 µM [inhibitor, single point] | 
CCCc1c(C)c2ccc(OCC(C)=O)cc2oc1=O | inconclusive: 28.2 µM [inhibitor, partial curve] | 
CCOC(=O)c1c(NC2=NS(=O)(=O)c3ccccc32)sc2c1CCC(C)C2 (stereo not drawn) | inconclusive: 17.8 µM [inhibitor, partial curve] | 
C=C(C)c1cccc(C(C)(C)NC(=O)N2CCN(c3ccccn3)CC2)c1 | inconclusive: 25.1 µM [inhibitor, single point] | 
c1ccc2oc(-c3[nH]ncc3CN3CCC(N4CCSCC4)CC3)cc2c1 |  | inactive: -4.18%
CC1=C(C(=O)OCCOC(C)C)C(c2cc3c(cc2Br)OCO3)C2=C(CCCC2=O)N1 (stereo not drawn) | inconclusive: 31.6 µM [inhibitor, partial curve] | 
Oc1ccc(Cl)cc1N=Cc1sc2ccccc2c1Cl | inconclusive: 3.16 µM [inhibitor, full curve] | 
COc1ccc(/C=C2/C(=O)N(Cc3ccccc3)N=C2C)cc1 | inconclusive: 28.2 µM [inhibitor, single point] | 
COc1ccc(C/C(C)=N/NS(=O)(=O)c2ccc(Br)cc2)cc1 | inconclusive: 39.8 µM [inhibitor, single point] | 
O=C1CC(N(CCc2ccccc2)C(=S)Nc2ccccc2)C(=O)N1c1ccc(F)cc1 (stereo not drawn) |  | inactive: 2.52%
C/C(=N\NC(N)=S)C1C2C3CC4C5CC(C42)C1C53 (stereo not drawn) |  | inactive: -4.76%
CCOC(=O)c1cc(C#N)c(SCC(=O)Nc2ccc(C(C)=O)cc2)[nH]c1=O | inconclusive: 39.8 µM [inhibitor, single point] | 
CCC(C(=O)Nc1cccc(C(=O)O)c1)c1ccccc1 (stereo not drawn) |  | inactive: 3.41%
Cc1onc(-c2ccccc2)c1CNC(=O)CN1C(=O)c2ccccc2C1=O | inconclusive: 31.6 µM [inhibitor, partial curve] | 
COc1ccc(C2c3c(ccc4ccccc34)Oc3ncn4nc(Cc5ccccc5)nc4c32)cc1OC (stereo not drawn) | inconclusive: 25.1 µM [inhibitor, partial curve] | 
O=C(Nc1ccc2cn[nH]c2c1)c1ccccc1F |  | inactive: -0.424%
CCOCCn1cnc2sc(C(=O)Nc3nc(C)c(C(=O)OCC)s3)c(C)c2c1=O |  | inactive: 8.49%
O=c1cnc2ccccc2n1CC1CCCCC1 | inconclusive: 39.8 µM [inhibitor, single point] | 
O=C(c1ccccc1)c1ccccc1N1C(=O)C=CC1=O |  | inactive: 2.54%

Structure (SMILES) | Potency | activity change, negative = inhibition
CS(=O)Cc1cc(Sc2ccccc2)nc(-c2cccnc2)n1 (stereo not drawn) |  | inactive: 8.86%
Cc1[nH]c(=O)c(C#N)cc1-c1ccccc1 | inconclusive: 28.2 µM [inhibitor, partial curve] | 
Cc1ccc(Cn2nc(C)c3cc(C(=O)OCC(N)=O)sc32)cc1 | inconclusive: 35.5 µM [inhibitor, single point] | 
COc1cc(-c2nnc(SCC(=O)N3c4ccccc4Sc4ccccc43)o2)cc(OC)c1OC |  | inactive: 4.01%
CN1CC=C2C(C#N)=C(N)C(C#N)(C#N)[C@H](c3cccc(Cl)c3)C2C1 (stereo partly drawn) | inconclusive: 22.4 µM [inhibitor, partial curve] | 
CSCc1ccc(C(=O)Nc2ccc(C(N)=O)cc2)cc1 | inconclusive: 39.8 µM [inhibitor, single point] | 
COc1ccc(C(c2c(C)[nH]n(C(N)=S)c2=O)C(C#N)C#N)cc1 (stereo not drawn) |  | inactive: -7.85%
CCOC(=O)c1cnc2nc(Cc3ccccc3)[nH]n2c1=O | inconclusive: 39.8 µM [inhibitor, single point] | 
CNc1nc(-c2c[nH]c3ccccc23)cs1 | inconclusive: 35.5 µM [inhibitor, single point] | 
COc1ccc(/C=C/C(=O)OCCNC(=O)c2ccncc2)cc1OC | inconclusive: 35.5 µM [inhibitor, partial curve] | 
CO[C@@]1(NC(=O)Cc2cccs2)C(=O)N2C(C(=O)O)=C(COC(N)=O)CS[C@@H]21 | active: 31.6 µM | 
Cc1c(CCC(=O)O)c(=O)oc2c(C)c(OCc3cc4c(cc3Cl)OCO4)ccc12 | inconclusive: 14.1 µM [inhibitor, partial curve] | 
Cn1c(NC(=O)/C=C/c2ccco2)cc(=O)n(C)c1=O | inconclusive: 28.2 µM [inhibitor, single point] | 
CCCNC(=O)c1c(N)n(-c2ccc(S(N)(=O)=O)cc2)c2nc3ccccc3nc12 | inconclusive: 25.1 µM [inhibitor, partial curve] | 
COc1ccc2c(C#N)c3ccccn3c2c1 | inconclusive: 3.16 µM [inhibitor, full curve] | 
COc1ccc(NC(=O)c2cc3c(=O)n(C)c4ccccc4c3s2)cc1OC | inconclusive: 35.5 µM [inhibitor, single point] | 
Oc1cccc2ccc[n+](CC(O)Cn3c4ccccc4c4ccccc43)c12 (stereo not drawn) |  | inactive: -8.67%
COc1ccc(-c2[nH]c(-c3ccc4c(c3)OCO4)nc2-c2ccccc2)cc1 | inconclusive: 28.2 µM [inhibitor, partial curve] | 
Cc1ccc(C(=O)OCC(=O)Nc2ccccc2Cl)c(O)c1 | inconclusive: 28.2 µM [inhibitor, partial curve] | 
Oc1ccc(N=Nc2ccc3c(c2)OCCO3)c2ncccc12 |  | inactive: -23.8%
O=C(c1ccc2c(c1)N(Cc1ccccc1)CCS2)N1CCCCC1 | inconclusive: 28.2 µM [inhibitor, partial curve] | 
COCCCN1CN(Cc2ccccc2)CNC1=S |  | inactive: -1.68%
COc1ccc(NC(=O)CSc2nc3nc(-c4cccs4)cc(C(F)(F)F)c3c(=O)[nH]2)c(OC)c1 | inconclusive: 25.1 µM [inhibitor, partial curve] | 

Structure (SMILES) | Potency | activity change, negative = inhibition
COC(=O)Cc1cc(=O)oc2c(C)c(O)ccc12 | inconclusive: 31.6 µM [inhibitor, partial curve] | 
COc1cc(OC)c(CN2CCN(c3ccc(F)cc3)CC2)cc1Br |  | inactive: -19.4%
Cc1ccc(C(=O)C2=C(O)C(=O)N(c3ncccn3)C2c2ccc(F)cc2)o1 (stereo not drawn) |  | inactive: -10.9%
CC(=O)Nc1ccc2c(c1)nc1n2CCN(C(C)c2ccccc2)C1 (stereo not drawn) | inconclusive: 31.6 µM [inhibitor, partial curve] | 
O=C(COC(=O)C1CCN(/C=C/C(=O)C(F)(F)F)CC1)Nc1cccc(F)c1 |  | inactive: 0.395%
COc1ccc2c(C)cc(SCC(=O)Nc3cc(C(N)=O)cc(C(N)=O)c3)nc2c1 | inconclusive: 39.8 µM [inhibitor, single point] | 
O=c1[nH]c(/C=C/c2cccc3ccccc23)nc2ccccc12 | inconclusive: 31.6 µM [inhibitor, partial curve] | 
NS(=O)(=O)c1cccc2c1c([N+](=O)[O-])cc1nc(O)c(O)nc12 | inconclusive: 2.82 µM [inhibitor, full curve, poor fit] and inconclusive: 39.8 µM [inhibitor, single point] | 
COc1ccc(/C=C/C(=O)NCc2cn(C)nc2C)cc1COc1ccc(Cl)cc1Br | inconclusive: 35.5 µM [inhibitor, partial curve] | 
Cc1cc(C=C2C(=O)c3ccccc3C2=O)c(C)n1-c1cccc(C(=O)O)c1 |  | inactive: -2.11%
CCc1cc(=O)oc2cc(C)c(CN3CCCCC3)c(O)c12 | inconclusive: 31.6 µM [inhibitor, single point] | 
Cc1ccc(/C=C/C2=Cc3c(sc(NC(=O)CSc4n[nH]c(N)n4)c3C#N)C(C)(C)C2)o1 |  | inactive: -9.43%
O=C(CCl)c1ccc2[nH]c(=O)oc2c1 | inconclusive: 15.8 µM [inhibitor, single point] | 
COc1ccc(OC)c(C(=O)Cn2nnc(-c3ccc(N4CCOCC4)cc3)n2)c1 | inconclusive: 35.5 µM [inhibitor, single point] | 
Cc1cc(N2CCCCC2)nc2ccccc12 | inconclusive: 35.5 µM [inhibitor, single point] | 
OC1CCN(c2c3c(nc4cc(-c5ccc(F)cc5)nn24)CCC3)CC1 | inconclusive: 39.8 µM [inhibitor, single point] | 
O=C1CN(CC(=O)Nc2cccc(Cl)c2Cl)c2ccccc2N1 | inconclusive: 28.2 µM [inhibitor, single point] | 
CCN1CCc2c(C#N)c(NCc3ccccc3)nc(NCCO)c2C1 | inconclusive: 3.55 µM [inhibitor, full curve] | 
O=c1oc2c(CN3CCOCC3)c(O)c(Cl)cc2c2c1CCCC2 | inconclusive: 0.562 µM [inhibitor, full curve] | 
COc1cccc(NC(=O)c2cc(-c3cccnc3)nc3c(Cl)cccc23)c1 | inconclusive: 35.5 µM [inhibitor, single point] | 
O=C(c1ccc(Cn2c(=S)[nH]c3ccc(N4CCOCC4)cc3c2=O)cc1)N1CCC(N2CCCCC2)CC1 | inconclusive: 39.8 µM [inhibitor, single point] | 
CN(C)c1ccc(C2CNC(c3ccc(Cl)c([N+](=O)[O-])c3)c3[nH]c4ccccc4c32)cc1 (stereo not drawn) | inconclusive: 12.6 µM [inhibitor, partial curve] | 
